Measurements: PubChem BioAssay AID588855 (National Center for Advancing Translational Sciences (NCATS), 2011)
About 5,000 (1.2%) of roughly 410,000 compounds were called active. Inconclusive results, whose numbers are uncertain, are shown with a selection of clear calls. The call rests on the fitted dose curve; in most records, active means well fitted inhibition curve with a large enough effect; inconclusive means small, poorly fitted or top-dose-only effect; inactive means no such curve, though single readings can be large or run the other way. Potencies of inconclusive entries are doubtful fits and often do not repeat.

Test: qHTS for Inhibitors of TGF-b; further: nearly all actives have a fitted effect of over 65% in size
Conditions: HepG2 CAGA-GFP TGF-b/SMAD3 reporter, GFP fluorescence, 18 h, TGF-beta stimulated, 500 pg/mL final; series mostly up to 46.1 µM
How it was run: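 Inhibition was scored as loss of TGF-beta-induced (500 pg/mL final, 18 hours, 37 degrees C) GFP in HEPG2 cells carrying a CAGA-GFP reporter, in DMEM with 1% FBS. Well GFP was summed per cell; Activity was normalised to unstimulated and stimulated DMSO wells, then concentration-response fitting.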
Potency means the concentration at half of the fitted maximal effect; tags describe the fitted curve by direction and shape.

Compound | Potency
CC(=O)Nc1ccc2nc(NC(=O)COc3ccccc3Cl)sc2c1 | inconclusive: 5.62 µM [inhibitor, single point]
COc1ccc(Cl)cc1NC(=O)CN1CCCCCC1 | inactive
C/C=C(\C)C(=O)Nc1cccc(C2=NOC3(C2)C[C@H](C(N)=O)N(C(=O)C(c2ccccc2)c2ccccc2)C3)c1 (some centres not stated) | inconclusive: 1.12 µM [inhibitor, full curve, poor fit]
CSCCC(NC(=O)C1CCC(C)CC1)C(=O)NCCN1CCC(C)CC1 (configuration not stated) | inactive
COc1c(C)cc(S(=O)(=O)NC2CC(C)(C)NC(C)(C)C2)c(C)c1C | inactive
Cc1cc(C)cc(NC(=O)c2cc(S(=O)(=O)NCCC3=CCCCC3)ccc2F)c1 | inconclusive: 35.5 µM [inhibitor, single point]
OC(CN1CCN(c2ncc(C(F)(F)F)cc2Cl)CC1)c1ccccc1 (configuration not stated) | inconclusive: 17.8 µM [inhibitor, single point]
COc1ccc(-c2cc(C(=O)NC3CCCC3)no2)cc1OC | inconclusive: 35.5 µM [inhibitor, single point]
Cc1cc(C)c(S(=O)(=O)Nc2cc(SCC(=O)O)c(O)c3ccccc23)cc1C | inconclusive: 35.5 µM [inhibitor, single point]
O=C(Nc1ccccc1)c1ccc(-c2ccc(Br)cc2)o1 | inconclusive: 35.5 µM [inhibitor, single point]
COc1cc2c(cc1OC)C1=CC(=O)C(=O)N1C(C)(C)C2 | inconclusive: 35.5 µM [inhibitor, single point]
COC(=O)[C@]1(C)CCC[C@@]2(C)C3CC[C@@]4(C)C[C@]3(CCC21)CC(=O)N4Cc1ccc(OC)cc1 (some centres not stated) | inconclusive: 20 µM [inhibitor, single point]
Cc1cc(S(=O)(=O)N(Cc2ccccc2F)C2CC2)ccc1-n1cnnn1 | inconclusive: 0.112 µM [inhibitor, full curve, poor fit]
Cc1cc(NC(=O)COC(=O)C2CCN(S(=O)(=O)c3ccc(Cl)cc3)CC2)no1 | inactive
O=C1C=CC2(O[C@H](c3ccccc3)[C@@H](c3ccccc3)O2)[C@H](Sc2ccccc2O)C1 | active: 2.82 µM
Cc1ccc(C(=O)CCNc2ccc(F)c(Cl)c2)o1 | inconclusive: 35.5 µM [inhibitor, single point]
CSc1nc(Nc2cccc(C)c2)c(C#N)c(-c2ccccc2)n1 | inactive
O=C(Nc1cc(Cl)ccn1)C1(c2ccccc2)CC1(Cl)Cl (configuration not stated) | inconclusive: 35.5 µM [inhibitor, single point]
Cc1c(OCC(=O)N(C)c2ccccc2)ccc2c3c(c(=O)oc12)CCC3 | inactive
Cc1ccc(-c2nc(CS(=O)(=O)CC(=O)N3CCN(c4cccc(C)c4C)CC3)c(C)o2)cc1 | inconclusive: 2.82 µM [inhibitor, full curve, poor fit]
O=C(c1cc2cc(Cl)cc(Cl)c2oc1=O)N1CCOCC1 | inconclusive: 28.2 µM [inhibitor, single point]
O=C(Nc1nc2c(s1)CCCC2)c1ccc(S(=O)(=O)N2CCCc3ccccc32)cc1 | inconclusive: 7.08 µM [inhibitor, full curve, poor fit]
Cc1ccc(/C=N/n2cnc3sc(C)c(C)c3c2=O)o1 | inactive

Compound | Potency
Cc1ccc(C(=O)Nc2ncc(Cc3ccc(SC(F)F)cc3)s2)cc1 | inconclusive: 0.794 µM [inhibitor, full curve, poor fit]
CC1CCN(S(=O)(=O)c2ccc3c(c2)oc(=O)n3CC(=O)NC(C)c2ccccc2)CC1 (configuration not stated) | inconclusive: 15.8 µM [inhibitor, single point]
O=C(NCc1ccncc1)C1Cc2c(-c3ccccc3Oc3ccccc3)ccnc2O1 (configuration not stated) | active: 14.1 µM
CN(C)/C=C1\C=Cc2ccccc21 | inconclusive: 11.2 µM [inhibitor, single point]
Cc1ccccc1-c1noc(-c2cc3ccccc3oc2=O)n1 | inactive
CCn1c(=O)c2cc(S(=O)(=O)NCc3ccccc3)ccc2n(CC)c1=O | inactive
O=C(CN(c1ccc(Cl)c(C(F)(F)F)c1)S(=O)(=O)c1ccccc1)N/N=C/c1cccc2c1OCCO2 | inconclusive: 31.6 µM [inhibitor, single point]
CCOc1cccc(CN2CCN(c3cccc(C(F)(F)F)c3)CC2)c1O | inactive
CC(C)C(O)(C#CCN1CCCCC1)C(C)C | inconclusive: 2.82 µM [inhibitor, full curve]
COc1ccc(C2c3ccc(O)cc3Oc3ncn(CCN4CCOCC4)c(=N)c32)cc1 (configuration not stated) | inactive
CCOC(=O)c1cccc(NC(=O)c2cc3cc4ccc(C)cc4nc3o2)c1 | inconclusive: 12.6 µM [inhibitor, single point]
CCOC(=O)C1CCN(C(=O)c2cc(COc3ccc(OC)c4ccccc34)on2)CC1 | inconclusive: 25.1 µM [inhibitor, partial curve, poor fit]
CCCn1c(SCc2nc(-c3cc(OC)ccc3OC)no2)nnc1-c1ccc(Cl)cc1 | inconclusive: 22.4 µM [inhibitor, single point]
COc1ccc(/C=C(\NC(=O)c2ccccc2)C(=O)N/N=C/c2sccc2C)cc1 | inconclusive: 15.8 µM [inhibitor, single point]
COC(=O)C(CC(C)C)N(Cc1cc(OC)cc(OC)c1)S(=O)(=O)c1ccccc1Br (configuration not stated) | inconclusive: 8.91 µM [inhibitor, partial curve]
CCOC(=O)c1c(C)[nH]c(C)c1S(=O)(=O)N1CCCC(C(=O)Nc2ccccc2OCC)C1 (configuration not stated) | inconclusive: 10 µM [inhibitor, partial curve, poor fit]
CSc1ccccc1CNC(=O)C1(C)CCCN1CC(C)C (configuration not stated) | inconclusive: 35.5 µM [inhibitor, single point]
Cn1nccc1C(=O)Nc1ccc(Cl)cc1 | inactive
COc1ccc(Cl)cc1NC(=O)CNc1ccccc1CN(C)C1CCCCC1 | inactive
COc1ccc(OC)c(CNC(=O)Cc2c(C(=O)O)[nH]c3ccccc23)c1 | inconclusive: 28.2 µM [inhibitor, single point]
COC(=O)c1ccc(COc2ccc(/C=C/C(=O)c3ccc(OC)c(CSCC(=O)O)c3)cc2OC)cc1 | inconclusive: 12.6 µM [inhibitor, partial curve, poor fit]
COc1cc(NC(=O)Nc2nnc([C@@H]3C[C@H](O)[C@@H](CO)O3)s2)cc(OC)c1OC | inactive
CC1=C(C(=O)OCc2ccccc2)C(c2ccccc2Br)NC(=O)N1 (configuration not stated) | inconclusive: 35.5 µM [inhibitor, single point]

Compound | Potency
CC(=O)Nc1c(C)nn(-c2ccccc2)c1N1CCC(C(=O)Nc2ccc(F)cc2Cl)CC1 | inconclusive: 0.891 µM [inhibitor, full curve, poor fit]
CCc1ccccc1NC(=S)N(Cc1cccs1)C1CCCC1 | inconclusive: 35.5 µM [inhibitor, single point]
CCC(C)NC(=S)N1CCN(Cc2ccc3c(c2)OCO3)CC1 (configuration not stated) | inconclusive: 35.5 µM [inhibitor, single point]
O=C(CCS(=O)(=O)c1ccccc1)Nc1nc2c(s1)COc1ccccc1-2 | inconclusive: 25.1 µM [inhibitor, single point]
CC1(c2ccc(OC(F)F)cc2)NC(=O)N(/N=C/c2c(O)ccc3ccccc23)C1=O (configuration not stated) | inconclusive: 22.4 µM [inhibitor, single point]
COc1cccc(C=NCCCN=Cc2cccc(OC)c2O)c1O | inconclusive: 22.4 µM [inhibitor, single point]
O=C(Nc1nc(-c2cccc3ccccc23)cs1)c1cnccn1 | inactive
O=C(NC(=S)Nc1ccccc1Br)c1ccc2c(c1)OCO2 | inactive
CC1=C(C(=O)Nc2ccccc2)C(c2ccccn2)n2nc(CCCO)nc2N1 (configuration not stated) | inconclusive: 35.5 µM [inhibitor, partial curve, poor fit]
O=C(NCC(=O)N1CCN(C(c2ccccc2)c2ccccc2)CC1)c1ccccc1Br | inconclusive: 31.6 µM [inhibitor, partial curve, poor fit]
CCCCN1Cc2ccccc2Oc2cc(Br)ccc2S1(=O)=O | inconclusive: 35.5 µM [inhibitor, single point]
COc1ccccc1-c1noc(-c2ccccc2)n1 | inactive
CCc1ccc2[nH]c3nc(C)cc(C)c3c(=O)c2c1 | inactive
NC(Cc1ccc(C(F)(F)F)cc1)c1csc(Nc2ccc(C(=O)NCCCO)cn2)n1 (configuration not stated) | inconclusive: 35.5 µM [inhibitor, single point]
Cc1ccc(Cc2c(-c3ccco3)nc3ccc(Cl)cn23)cc1 | inconclusive: 35.5 µM [inhibitor, partial curve, poor fit]
COc1cc(C2C(=O)N(C3CCCCCC3)CC(=O)N2CCC2=CCCCC2)ccc1OC(C)C (configuration not stated) | inactive
CNCCCC1c2ccccc2C=Cc2ccccc21 | inactive
O=C(Nc1ccccc1Cl)c1cc(S(=O)(=O)N2CCC3(CC2)OCCO3)ccc1F | inconclusive: 14.1 µM [inhibitor, single point]
COc1ccc(NC(=S)N(CCCN2CCC(C)CC2)Cc2cccs2)cc1 | inconclusive: 35.5 µM [inhibitor, single point]
CCCN(CC(=O)Nc1cc(Cl)cc(Cl)c1)CC(=O)Nc1ccc(F)c(F)c1F | inconclusive: 35.5 µM [inhibitor, single point]
COc1ccccc1C(=O)N1CCN(CCNC(=O)C(=O)Nc2ccc(Br)c(C)c2)CC1 | inconclusive: 22.4 µM [inhibitor, single point]
